# Whole data set: some 33,000 sequences, median “E-score (-0.5 to 0.5)” near -0.036, cut for the highest 2% near 0.37. The list shows a part of the results.
# Target: T1, Yer064c (UniProt P40041)
# T1 sequence: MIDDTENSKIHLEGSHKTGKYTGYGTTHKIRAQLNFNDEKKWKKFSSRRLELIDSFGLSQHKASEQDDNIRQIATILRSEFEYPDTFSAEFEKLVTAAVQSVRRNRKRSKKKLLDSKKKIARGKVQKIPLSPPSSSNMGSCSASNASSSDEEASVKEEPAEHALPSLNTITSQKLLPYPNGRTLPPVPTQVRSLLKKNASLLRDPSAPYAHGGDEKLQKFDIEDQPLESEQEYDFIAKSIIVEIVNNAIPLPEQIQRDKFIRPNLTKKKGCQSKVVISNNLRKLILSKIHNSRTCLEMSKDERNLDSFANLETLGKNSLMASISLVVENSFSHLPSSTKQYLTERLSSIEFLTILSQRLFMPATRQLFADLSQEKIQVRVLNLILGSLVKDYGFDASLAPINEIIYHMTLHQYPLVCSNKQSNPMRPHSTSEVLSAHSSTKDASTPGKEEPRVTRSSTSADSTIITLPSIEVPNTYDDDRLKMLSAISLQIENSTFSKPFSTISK
# Assay: PBM E-score (8-mer binding enrichment) (E-score (-0.5 to 0.5)); higher = stronger / more preferred TF binding; most listed sequences are background and not binding sites
# Conditions: protein concentration: 200 nM; construct: GST-full length
# Procedure, shortened: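 The E-score, a modified Wilcoxon-Mann-Whitney statistic, was computed by the Universal PBM Analysis Suite for every ungapped eight-base word pooled with its reverse complement. Scans behind it were normalised with masliner after bound GST-tagged yeast transcription factors were detected with fluorescent anti-GST. The proteins, at about 100-200 nM, had been applied to universal all-10-mer Agilent arrays made double-stranded by primer extension.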
row,Sequence,PBM E-score
1,TATAGGGA,-0.00212
2,AGCCGTTA,-0.011
3,GCGGGTCA,0.148
4,CACCCGCG,0.0436
5,CGGGCAGC,-0.122
6,GCCGCGGA,-0.216
7,CTAGTCAG,0.418
8,GAGACTAA,0.413
9,CCTAAGGA,0.0353
10,AGGCGACT,0.387
11,CCCTATGC,-0.215
12,ACTTCGGA,0.0392
13,AGAAAGCG,-0.082
14,CCGCCCCA,-0.155
15,AGTGTCTA,0.154
16,CGTAATCA,0.42
17,ACTCCCCA,0.207
18,GTGGCAAC,-0.295
19,ATGGGTAA,0.275
20,CTTACTCC,0.128
21,CAACACCG,-0.0689
22,CTATAGTC,0.37

row,Sequence,PBM E-score
1,ATTCCTCG,-0.0413
2,AACCGTAT,-0.193
3,ACTTACAA,0.155
4,AAGAGTAA,0.151
5,CAAACGGC,-0.147
6,CCGGCATC,-0.251
7,AAGCTGAC,0.176
8,ATTGAAGG,0.114
9,CCTGTGAC,0.144
10,AGCGTAGC,-0.0386
11,GAGATTGC,-0.145
12,GCAGAGTA,-0.0539
13,CCTTCGTC,-0.0151
14,CTCCGCCC,-0.221
15,GAGTATTA,0.175
16,AATAGCGG,-0.18
17,ACCGCAGT,0.0526
18,GAGCCCGA,0.1
19,ACCGACCC,-0.141
20,AACCACTG,0.0676
21,AAAAGGAC,0.036
22,CCGAACCA,-0.222

row,Sequence,PBM E-score
1,TCGGAGCA,-0.222
2,AAATGCCG,-0.169
3,AATGATTC,0.464
4,CCCTCTAC,-0.149
5,ACCTGAGA,-0.0139
6,AGCCCGCA,-0.0469
7,GGACCCAC,-0.07
8,CACGAGCG,-0.101
9,GGCACAAA,-0.255
10,GACAAAGA,0.0339
11,CAGTGTAA,0.0877
12,CACTCCTC,-0.206
13,AGCTCCGG,-0.18
14,CTACGACC,-0.0192
15,AACCATTA,0.198
16,AGGAGCTC,-0.0695
17,CCGGTCTA,0.058
18,CAGGTCTA,0.00506
19,GAGGATGA,0.0709
20,AGACCATC,-0.124
21,ACGGAAGA,-0.0128
22,ATATTATA,-0.00602

row,Sequence,PBM E-score
1,ATACACCG,-0.117
2,AAGCGGCC,-0.245
3,CGGCCTGA,-0.139
4,CCGTACCG,-0.08
5,ATTTAGAA,-0.011
6,CTGGTCAA,-0.205
7,CTAGACCA,-0.0688
8,AAGTCTCA,0.239
9,AACGCATC,-0.127
10,CTAATGAA,0.184
11,AAAGATAG,0.0338
12,AGTTAAGC,-0.109
13,ACTAACAC,0.315
14,CGCGAAAA,-0.0519
15,CTTTTGAA,-0.0309
16,CCTAATCG,0.0953
17,CTTGGAGA,-0.00946
18,ATAATACG,-0.0247
19,CAGGCCCG,-0.317
20,CACTCACG,0.112
21,ACATACTG,-0.115
22,AACGGAAA,0.0241

row,Sequence,PBM E-score
1,CGGTGCTC,-0.133
2,CTTCTCCC,-0.131
3,AGTCTCGA,0.24
4,GTCCAGCA,-0.0814
5,CTGATACC,-0.106
6,TCGCGTAA,-0.0334
7,CGGCGCTC,-0.158
8,GACTCATA,0.477
9,AGAAATCG,-0.117
10,AGTCCCCG,0.106
11,AATTGATC,-0.046
12,AGTGAGAT,-0.00055
13,CATAAGGG,-0.267
14,CCGCTGGC,-0.328
15,GAAACACC,0.0146
16,GCCCACTA,-0.178
17,AGCCTATA,-0.27
18,AGGGTCGG,-0.191
19,CGGGTATA,0.0321
20,AGAGCACT,-0.0479
21,ATGCGTAA,-0.126
22,TATACCCA,0.0658
